Results taken from patent US20230242646A1 (JJP BIOLOGICS SP Z O O, published 2023).

Experiments:
[1] = molecular target: T1, recombinant C-terminal polyhistidine-tagged human (extracellular) CD89 (Sino Biological) (human, UniProt P24071 partial chain); experiment: ELISA on plate-coated rhuCD89; titrated supernatant; HRP goat anti-human IgG Fc detection, OD 450 nm [VL1]
T1 construct: extracellular domain; bought protein; also called rhuCD89; soluble monomeric rhuCD89

[2] = molecular target: T1, recombinant C-terminal …; experiment: ELISA on plate-coated rhuCD89; titrated supernatant; HRP goat anti-human IgG Fc detection, OD 450 nm [VL2]

T1 sequence (P24071 22-227): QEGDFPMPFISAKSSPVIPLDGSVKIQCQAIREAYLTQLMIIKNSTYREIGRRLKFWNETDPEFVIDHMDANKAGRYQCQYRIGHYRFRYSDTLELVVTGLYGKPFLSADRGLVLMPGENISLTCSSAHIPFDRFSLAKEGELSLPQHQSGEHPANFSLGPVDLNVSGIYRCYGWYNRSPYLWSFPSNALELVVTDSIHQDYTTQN

Binder	binding result [1]	EC50 (read off the curve) [2] [µg/mL]	further results
humanized IgG4/kappa anti-human CD89 monoclonal antibody 10E7 version VH1VL1 (antibody, tested as supernatant; IgG4 S239P) heavy: EVQLLESGGGLVQPGGSLRLSCAASGLTFSSYGMSWVRQAPGKGLEWVSTINGNGDITYYPDSVKGRFTISRDNSKNTLYLQMNSLRAEDTAVYYCARDYDYDYAMDYWGQGTLVTVSSASTKGPSVFPLAPCSRSTSESTAALGCLVKDYFPEPVTVSWNSGALTSGVHTFPAVLQSSGLYSLSSVVTVPSSSLGTKTYTCNVDHKPSNTKVDKRV[human IgG4 Fc with S228P (EU numbers) not given here] light: DIQMTQSPSSLSASVGDRVTITCRASQDIINYLNWYQQKPGKAPKLLIYYTSRLHSGVPSRFSGSGSGTDFTLTISSLQPEDFATYYCQQGKTLPYTFGQGTKLEIKRTVAAPSVFIFPPSDEQLKSGTASVVCLLNNFYPREAKVQWKVDNALQSGNSQESVTEQDSKDSTYSLSSTLTLSKADYEKHKVYACEVTHQGLSSPVTKSFNRGEC	binds		
humanized IgG4/kappa anti-human CD89 monoclonal antibody 10E7 version VH1VL2 (antibody, tested as supernatant; signal peptide end derived as for m17) heavy: EVQLLESGGGLVQPGGSLRLSCAASGLTFSSYGMSWVRQAPGKGLEWVSTINGNGDITYYPDSVKGRFTISRDNSKNTLYLQMNSLRAEDTAVYYCARDYDYDYAMDYWGQGTLVTVSSASTKGPSVFPLAPCSRSTSESTAALGCLVKDYFPEPVTVSWNSGALTSGVHTFPAVLQSSGLYSLSSVVTVPSSSLGTKTYTCNVDHKPSNTKVDKRV[human IgG4 Fc with S228P (EU numbers) not given here] light: DIQMTQSPSSLSASVGDRVTITCRASQDIINYLNWYQQKPGKAPKLLIYYTSRLHSGVPSRFSGSGSGTDYTLTISSLQPEDFATYYCQQGKTLPYTFGQGTKLEIKRTVAAPSVFIFPPSDEQLKSGTASVVCLLNNFYPREAKVQWKVDNALQSGNSQESVTEQDSKDSTYSLSSTLTLSKADYEKHKVYACEVTHQGLSSPVTKSFNRGEC		~0.07	
humanized IgG4/kappa anti-human CD89 monoclonal antibody 10E7 version VH2VL1 (antibody, tested as supernatant; signal peptide end derived as for m17) heavy: EVQLLESGGGLVQPGGSLRLSCAASGLTFSSYGMSWVRQAPGKGLEWVATINGNGDITYYPDSVKGRFTISRDNSKNTLYLQMNSLRAEDTAVYYCARDYDYDYAMDYWGQGTLVTVSSASTKGPSVFPLAPCSRSTSESTAALGCLVKDYFPEPVTVSWNSGALTSGVHTFPAVLQSSGLYSLSSVVTVPSSSLGTKTYTCNVDHKPSNTKVDKRV[human IgG4 Fc with S228P (EU numbers) not given here] light: DIQMTQSPSSLSASVGDRVTITCRASQDIINYLNWYQQKPGKAPKLLIYYTSRLHSGVPSRFSGSGSGTDFTLTISSLQPEDFATYYCQQGKTLPYTFGQGTKLEIKRTVAAPSVFIFPPSDEQLKSGTASVVCLLNNFYPREAKVQWKVDNALQSGNSQESVTEQDSKDSTYSLSSTLTLSKADYEKHKVYACEVTHQGLSSPVTKSFNRGEC	binds		
humanized IgG4/kappa anti-human CD89 monoclonal antibody 10E7 version VH2VL2 (antibody, tested as supernatant; signal peptide end derived as for m17) heavy: EVQLLESGGGLVQPGGSLRLSCAASGLTFSSYGMSWVRQAPGKGLEWVATINGNGDITYYPDSVKGRFTISRDNSKNTLYLQMNSLRAEDTAVYYCARDYDYDYAMDYWGQGTLVTVSSASTKGPSVFPLAPCSRSTSESTAALGCLVKDYFPEPVTVSWNSGALTSGVHTFPAVLQSSGLYSLSSVVTVPSSSLGTKTYTCNVDHKPSNTKVDKRV[human IgG4 Fc with S228P (EU numbers) not given here] light: DIQMTQSPSSLSASVGDRVTITCRASQDIINYLNWYQQKPGKAPKLLIYYTSRLHSGVPSRFSGSGSGTDYTLTISSLQPEDFATYYCQQGKTLPYTFGQGTKLEIKRTVAAPSVFIFPPSDEQLKSGTASVVCLLNNFYPREAKVQWKVDNALQSGNSQESVTEQDSKDSTYSLSSTLTLSKADYEKHKVYACEVTHQGLSSPVTKSFNRGEC		~0.05	
humanized IgG4/kappa anti-human CD89 monoclonal antibody 10E7 version VH3VL1 (antibody, tested as supernatant; signal peptide end derived as for m17) heavy: EVQLLESGGGLVQPGGSLRLSCAASGLTFSSYGMSWVRQAPGKGLELVATINGNGDITYYPDSVKGRFTISRDNSKNTLYLQMNSLRAEDTAVYYCARDYDYDYAMDYWGQGTLVTVSSASTKGPSVFPLAPCSRSTSESTAALGCLVKDYFPEPVTVSWNSGALTSGVHTFPAVLQSSGLYSLSSVVTVPSSSLGTKTYTCNVDHKPSNTKVDKRV[human IgG4 Fc with S228P (EU numbers) not given here] light: DIQMTQSPSSLSASVGDRVTITCRASQDIINYLNWYQQKPGKAPKLLIYYTSRLHSGVPSRFSGSGSGTDFTLTISSLQPEDFATYYCQQGKTLPYTFGQGTKLEIKRTVAAPSVFIFPPSDEQLKSGTASVVCLLNNFYPREAKVQWKVDNALQSGNSQESVTEQDSKDSTYSLSSTLTLSKADYEKHKVYACEVTHQGLSSPVTKSFNRGEC			EC50 (read off the curve) [1]: ~0.05 µg/mL
humanized IgG4/kappa anti-human CD89 monoclonal antibody 10E7 version VH3VL2 (antibody, tested as supernatant; signal peptide end derived as for m17) heavy: EVQLLESGGGLVQPGGSLRLSCAASGLTFSSYGMSWVRQAPGKGLELVATINGNGDITYYPDSVKGRFTISRDNSKNTLYLQMNSLRAEDTAVYYCARDYDYDYAMDYWGQGTLVTVSSASTKGPSVFPLAPCSRSTSESTAALGCLVKDYFPEPVTVSWNSGALTSGVHTFPAVLQSSGLYSLSSVVTVPSSSLGTKTYTCNVDHKPSNTKVDKRV[human IgG4 Fc with S228P (EU numbers) not given here] light: DIQMTQSPSSLSASVGDRVTITCRASQDIINYLNWYQQKPGKAPKLLIYYTSRLHSGVPSRFSGSGSGTDYTLTISSLQPEDFATYYCQQGKTLPYTFGQGTKLEIKRTVAAPSVFIFPPSDEQLKSGTASVVCLLNNFYPREAKVQWKVDNALQSGNSQESVTEQDSKDSTYSLSSTLTLSKADYEKHKVYACEVTHQGLSSPVTKSFNRGEC		~0.03	
